Assay results published in the supplement of paper PMC3334620.
Over roughly 33,000 sequences, “E-score (-0.5 to 0.5)” has its median near -0.043; the highest 2% begin near 0.37. Some of the results follow.

Each sequence was assayed against T1, Upc2 (UniProt Q12151) (assay: PBM E-score (8-mer binding enrichment) (E-score (-0.5 to 0.5)); higher = stronger / more preferred TF binding; most listed sequences are background and not binding sites). Conditions: protein concentration: 200 nM; construct: GST-full length.
T1 sequence: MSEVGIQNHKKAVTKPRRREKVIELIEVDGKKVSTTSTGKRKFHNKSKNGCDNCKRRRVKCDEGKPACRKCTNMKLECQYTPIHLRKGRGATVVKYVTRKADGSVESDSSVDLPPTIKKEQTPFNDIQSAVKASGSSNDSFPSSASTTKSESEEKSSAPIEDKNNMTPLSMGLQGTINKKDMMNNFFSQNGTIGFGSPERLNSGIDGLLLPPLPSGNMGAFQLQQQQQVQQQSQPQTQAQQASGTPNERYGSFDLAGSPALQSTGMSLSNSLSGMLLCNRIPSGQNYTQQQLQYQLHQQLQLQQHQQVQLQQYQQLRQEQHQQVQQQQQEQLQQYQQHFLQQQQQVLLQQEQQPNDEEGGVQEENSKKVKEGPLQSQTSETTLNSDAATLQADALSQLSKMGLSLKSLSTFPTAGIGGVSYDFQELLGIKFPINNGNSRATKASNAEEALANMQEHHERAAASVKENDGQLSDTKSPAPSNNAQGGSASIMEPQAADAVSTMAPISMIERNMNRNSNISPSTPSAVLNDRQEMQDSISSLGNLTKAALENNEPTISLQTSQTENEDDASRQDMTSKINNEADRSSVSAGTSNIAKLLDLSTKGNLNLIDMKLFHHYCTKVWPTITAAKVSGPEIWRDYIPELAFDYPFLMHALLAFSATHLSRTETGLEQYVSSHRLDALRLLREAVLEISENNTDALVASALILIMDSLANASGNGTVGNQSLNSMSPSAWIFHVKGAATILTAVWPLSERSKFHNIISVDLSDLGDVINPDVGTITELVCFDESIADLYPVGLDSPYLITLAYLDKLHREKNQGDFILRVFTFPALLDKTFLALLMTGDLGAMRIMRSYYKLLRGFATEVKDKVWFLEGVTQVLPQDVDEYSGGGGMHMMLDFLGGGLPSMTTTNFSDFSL
Procedure, shortened: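 PURExpress in vitro transcription/translation supplied GST-tagged yeast transcription factors, either full-length or DNA-binding domain. Applied at about 100-200 nM to universal all-10-mer Agilent arrays double-stranded by primer extension, the bound protein was detected with fluorescent anti-GST. E-scores, modified Wilcoxon-Mann-Whitney statistics, were given by the Universal PBM Analysis Suite to ungapped eight-base words pooled with their reverse complements after masliner normalisation.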

Sequence	PBM E-score
AAGCTCTC	-0.171
AGTGGGGA	-0.152
ATATATAA	0.141
AAATTGAC	0.0644
CCTTTTAG	-0.0261
CCCGTATA	0.479
ATGTCTCA	-0.192
ATATTTTG	-0.102
ACTGTGTA	0.0766
AGTTACTC	0.142
ACGCTATA	0.257
GCTGTGTA	0.00184
CTCTAAGC	0.0282
ACAAAGAC	0.0593
CATAGGGA	-0.434
CCCCCTCA	-0.388
ATGCGAGC	0.304
ACTCTGCT	-0.118
CCACACTC	-0.0668
GCACGTAC	0.227
ACACTTTC	-0.044
ATACAAAA	0.0979
CATCAGTC	-0.123
ACCTAGGC	-0.352
ACCCCAAC	-0.236

Sequence	PBM E-score
ACGCAGTG	0.0743
ACGTGGAT	0.162
CCGAATAG	0.00943
AGATTGCG	0.0197
GCGCGCTA	0.151
GTATCTCA	0.101
CACCGTCA	-0.0762
GGTCGAAC	0.00809
AAGGTCGA	-0.00412
GGTAGTAA	0.0105
CCACAACG	0.105
TATCCGGA	0.0472
GCCGTAAA	0.385
CCGGGGCG	-0.0612
CAATCGTG	-0.153
CATCCACG	-0.102
GCCATGCA	-0.206
ATTCTTTA	0.157
CAGAGCTG	-0.317
AATCAGAC	-0.0696
CTGGGAAA	-0.185
AGTCATAA	0.0313
GGAGAAAA	-0.0493
AGATGACA	-0.218
TCATCTAA	0.0297

Sequence	PBM E-score
TCAGAAGA	-0.0991
GTCTAGTA	-2e-05
ATGGCTGC	0.0303
ACTAGTTA	0.0543
ACGGAACG	0.359
CCTAATAC	-0.066
CAGTGGCC	-0.231
CCCCTTGC	-0.172
CAAATAGC	-0.0463
CTCCTGTA	-0.02
ACGACCGC	0.359
CTTATAAA	0.125
CGCAAACA	0.0866
AGCTTCAT	-0.0456
CCATATCA	-0.0248
CGACCCGC	0.0304
ACGCCTGG	-0.026
GTTTTTTA	0.054
CGGGCAAC	-0.0496
GTACCACA	0.178
CATAATAG	-0.071
AACTTTAC	0.0923
ATGCACCA	-0.188
AAGCGAAT	0.298
CCGGTAGG	-0.188

Sequence	PBM E-score
GCTTCTCA	-0.146
CACTCGGC	0.0986
AGTCTTTC	-0.0324
CCTCGGGA	0.0787
AACTACTC	-0.0349
ATAAATGA	0.0703
CGCGTCCA	0.109
GGATACCC	0.0221
CGCCTTTC	0.014
CCGAGTCC	-0.0483
AAGATGCA	-0.17
TAATTGAA	-0.138
AGACGAAA	0.196
CCAGCGCC	0.0578
AATCCCAT	-0.229
GATCCCGC	-0.037
CGAGATCG	0.207
GCGGCCTA	-0.197
AACAAGAG	-0.113
CATGCCAC	-0.154
AAAATTAA	-0.0345
CTTTCACA	-0.0433
TACGTGAA	0.282
CTAAGGGA	0.0198
AGCGGTCC	-0.127

Sequence	PBM E-score
AATGCCTG	-0.12
CTACTCAG	-0.28
AGACATAT	-0.0472
CACTCGTC	0.0141
GAACTACA	-0.0134
GTGATCCA	-0.191
AAAGCCGG	0.00256
CCCGACGG	0.0878
ATAAGTTC	0.00948
TATCGCCA	-0.105
CATCACAA	0.0119
TATCGACA	0.0753
ACAAGTCT	-0.254
GCCCTTAA	0.0503
GAAGGGTC	-0.129
AGCGGCGC	-0.193
CGACATCA	0.137
GGGAGCCA	-0.222
AGATAGTA	-0.0283
ATCAGTCA	0.0344
ATGAACTC	-0.154
CTCTTAGC	-0.0328
GAATAACA	0.096
AGGTTTGG	-0.0777
ACAAGTCC	-0.257

Sequence	PBM E-score
ATCTAGAT	0.0266
CAGTGCCA	-0.161
ACCGGAGT	0.0153
GGCTTTAC	0.234
AGGAGAAA	-0.271
CTCTATGA	-0.181
AAATTGCG	0.219
AATAGACA	-0.187
GACCACTA	-0.152
GTGTACAA	0.0763
GAACGGTC	0.249
TCTTTTCA	-0.155
ACGCTCCC	-0.175
AAGCCATA	-0.0666
CTATGTAC	0.131
GAGACGGC	-0.0958
CGGCACCA	-0.0913
GATTAAGA	0.0715
AATACCAA	-0.146
GGATCAGA	-0.208
AACTAATC	0.0158
ATTACCAC	-0.0842
AGGAAAAT	-0.0665
AATATATC	-0.0702
GAAGCTTA	0.178

Sequence	PBM E-score
AACTGACA	-0.152
CTATCATC	-0.0784
ACTGAGGG	-0.24
CGGTCCAA	-0.129
ATAAAGCA	-0.244
ATATCAAG	-0.00177
CATACAGG	-0.117
AGATGTAA	-0.0449
CCCCTGAG	-0.139
AATCGTTA	0.292
TCCACGGA	-0.137
ATATGCCC	-0.307
AGGAACTA	-0.0131
ATGCCAGG	-0.193
ATAGGAAG	-0.0435
CGTGATCA	-0.083
ATCATGGC	-0.177
ACATGTCG	0.0614
GGCGCTGA	-0.342
AGTCGTCC	-0.111
ACTGCCAC	-0.119
AAGCATAC	0.173
